Laboratory results published in the RNAGym collection of RNA variant scans (doi:10.7554/elife.90254).
Read counts are not given, so values of variants with three or more changes are uncertain.

B1: LINE1-mini (parent)
chain: GGCAGAGCUCAACACAGCGUGGCAAAGUGGCUGUGGCUAGACUGCC

Variants of: B1
Assay: self-cleavage, relative activity (ratio to wild type); higher = more cleavage; in vitro, sequencing; the parent is a self-cleaving ribozyme

Variant	self-cleavage
C10A C18A G19U A39U	0.07
U9G U20A G27U U32G	0.03
C10A C15U G30U G44A	0.04
U9G G21U A26G G27U	0.06
C10A A12U C42A	0.02
C10A C13G G17A G36A C45G	0.05
C10A A12U U20C U32A C46U	0
C10A C18G C23U	0.03
C10A A24U A41C G44U	0.04
C10A C18U G19C A24U A26C	0.02
C10A C13A A24U	0.04
U9G G22U G27U	0.05
C10A C15U C37G A39U	0.01
C10A A14U C42G	0.01
C10A C15G C18A C31G G36C	0.01
U9G G29A U34A U38C	0.02
C10A A11G C45A	0.02
U9G U28A G44U	0.01
U9G G17C U34C A41C	0.04
C10A A25U A26C G30A	0.07
C10A A14G A26G A39G	0.06
U9G G21U C45U	0.05
U9G G29A C46G	0.05
C10A A25U U34C	0.01

Variant	self-cleavage
C10A A14U A41U U43G C45A	0.01
C10A C13U A16U G22U G36A	0.06
C10A A14U G21U G36U	0.01
C10A A14G C15G G35A C46A	0.01
U9G G19C C45U	0.04
C10A C15G G21A A24U G44A	0.03
C10A A24C G30U U32A	0
C10A A26G U28A G36C	0.01
U9G G21A G22U U38A A39C	0.01
C10A C23A G40A	0.08
C10A A16U G33A G44A C45U	0.02
U9G G22U G27U C31G U34G G44A	0.02
U9G U20A G21C G35C U43G	0.03
C10A A12G A26G G44C	0.01
C10A C15A G30A G36U A39G	0.03
U9G G19C C23U A26C U28C	0.02
U9G U20C C23G U43A	0.03
C10A A12C C45A	0.01
C10A C13A G35U G36C C42G C46A	0.01
U9G G19A G22C	0.05
C10A A11U C13G U20G	0.01
U9G G22U G35C G44U	0.01
C10A C13G A39C	0
C10A C13U A25U U34A	0.01

Variant	self-cleavage
C10A A16U G33U	0.04
C10A A12C G30C A41C	0.02
C10A C13A G21U A26G G30U	0.03
C10A C13A A16U G19A G36U	0.02
C10A C13U C15A C18G A39U G44U	0.01
C10A C23G A24C C37A C42G	0.01
C10A C13A A26G	0.05
C10A A12G U20C G30U	0.02
C10A C23A U32A	0.01
C10A C13U G33U U43G C46U	0.02
C10A A14G G36U	0.01
U9G G40U C42U	0.03
C10A A12C G17U G19C U32A	0
C10A A11C G36U	0.02
U9G G21A G36A C37U	0.02
C10A C15U G17C	0.04
U9G G19C A41U	0.04
C10A A14U C23U C37G	0.02
C10A A12U G27U G35A	0.03
C10A A25G C46G	0
C10A A14C A25U G29U G40C A41U	0.01
C10A A24C G40C	0.05
C10A C13U C31A U38A	0.06
C10A A11C A14G G19C G33C A39C	0.01

Variant	self-cleavage
U9G G19A G36A	0.56
C10A A16U U34G	0.03
C10A A14C A26U	0.03
C10A A14U C46G	0.01
U9G G29C U32A G44U	0.1
C10A C15G C42A	0.03
C10A A25U G33U C37A	0.01
C10A A16G A26U	0.04
C10A A16U G40U	0
C10A C13G A25U U28A A41G C45G	0.02
C10A A12G C23A G40A G44C	0.01
C10A A14C G22C U32A	0.01
C10A A12G U32C	0.01
C10A A11U C18A U28G	0.02
C10A A14U C18G U43A	0
C10A C13U G19U G44U	0
C10A C15U U43A	0.01
C10A A16U A41U	0.01
U9G G19A U20A C23A U28A C37G	0.01
C10A A12U U38C C45U	0.01
C10A A11G A26C G40A	0.01
C10A A14U G27U G29A	0.04
C10A A11U U34G A41G	0.04
U9G U32G C42G	0.01

Variant	self-cleavage
C10A A25G A39G	0
C10A A12U U20C	0.04
C10A C23A G29C G35A U43A	0.01
C10A C13A C15G G44A	0
C10A C13A A16G C46A	0.03
C10A A14C C23U	0.01
C10A C13U C15G	0
C10A C13A C46A	0.04
C10A C13A G30U G35U	0.06
C10A A39U G44A	0.03
C10A A14U A16C G30U	0.01
C10A A12C A14C A26G G35U	0.01
C10A A11C C23U A24U	0.01
C10A C18A U34C	0.03
C10A C13A C18U G19U	0.01
C10A A41U C46A	0
C10A C15A A16U U43C	0.06
U9G G36U C37U	0.03
C10A A24C G36C	0
U9G G22A C37U	0.02
C10A C15U A41G C45G	0
U9G G17C U28A C31G G33A	0.04
C10A C15A G27C U28C	0.01
C10A A11G U20G	0.02

Variant	self-cleavage
C10A C18G C31A U38A	0.01
U9G G21U U38A	0.15
U9G U28C G29C	0.03
C10A A14G A16C G17U	0.02
C10A A11G G22U U43A C46A	0
C10A C13U C15G G22U A26C	0.02
C10A A11C C15G A24C G29C G33U G35U A39U	0
C10A A24G G29U	0
C10A A16U G27A	0.05
C10A A14G C45U	0.01
U9G G17U G40A	0.03
U9G G17U A24G	0.02
C10A C13U A25U A26U G29C G36C	0
C10A A16G G17A G21U G30U C37G A39U C46G	0
U9G G17U G19A C46G	0.01
C10A C13G C23U A39U U43C C46G	0.01
C10A A25U G27U	0.09
C10A A11U C23G A25C U38A	0.03
U9G G19C G40U	0.03
C10A C13U G22A U32C G35U	0.03
C10A C18A A25U G29U C31A	0.1
C10A A16U G35C	0.03
C10A A12U G21A G29C	0.02
C10A A14U G29U G33A	0.02

Variant	self-cleavage
C10A C15A C46U	0.02
U9G G21A A24C U38C	0.12
C10A A16U U43C	0.02
C10A A11G C15U U38G	0.06
U9G U28G A39C	0.09
C10A A12U U28C G36A G40C U43C	0
C10A A12G G17C G36A C46U	0.04
C10A C13U C23U U34C G40C	0.01
C10A A14C G44U	0.01
C10A C18U G33C	0
C10A C18U G33U	0.02
C10A A12C C15G G22A G27C	0.02
C10A A11G C18G G21A G30U	0.04
C10A C15A G40C U43A	0
C10A C13A A14U	0.01
C10A A24U G40U	0.02
U9G G36C C46A	0.04
C10A A12G U28G A39G	0.01
C10A A14G G22C G40U	0.01
C10A A14C G19U A26U	0.01
C10A A12G C13A	0.03
C10A A12G C13U	0.03
C10A A14C G29C A41U C42A G44A C46A	0
